Experimental data published in publication PMC10668032.
Some of the results follow. At the low end of the ranking, values are background and their order means little.

Target: SIX1-Q177R homeodomain (UniProt Q15475)
Experiment: universal protein binding microarray
Conditions: Universal all-10-mer PBM (8x60K, AMADID 030236), 300 nM GST-tagged protein, Alexa Fluor 488 anti-GST; buffer, salt, pH and temperature not stated; high values mean tight binding; most listed sequences are background and not binding sites; double strand, one strand shown

Sequence | binding signal [E-score]
CTAGACAG | -0.084
AATAGTCA | -0.176
CCCACCAC | 0.158
AGATGGTA | -0.0721
ATTCACGC | -0.0357
CTCTGCTC | -0.197
CACGGATG | 0.155
CCATCGTA | 0.0875
AAGTGGTA | -0.0332
ATACCTAG | 0.196
AGCGTGCA | 0.0729
ATGCCCAG | -0.0933
ACAGTGCG | -0.102
CGTGGGTA | 0.00698
CTCAAGAA | -0.0711
AGAGAGCG | -0.227
CTCTATCC | 0.037
GAACGCGC | 0.0768
TAGGTCGA | 0.034
AGGCGAGC | -0.00503
CCCGATAC | 0.293
CCGCCTCA | -0.0946
ACAGAAAG | -0.164
ACTGCGTC | -0.12
GCCTGGGA | -0.02

Sequence | binding signal [E-score]
ATGACCTC | -0.126
CGCATGCA | 0.0964
TAGGAATA | -0.124
ATAGGGAA | -0.0588
CGCACCGA | 0.149
ACAGCGAT | -0.233
TATATGCA | 0.0411
ATTGACTG | -0.106
ACGGGAGT | 0.186
AGTTCAAT | -0.22
CCGTTTTA | -0.126
ACTATGAT | -0.138
ACAACAGT | -0.0519
GCGGTCAC | -0.0825
GTATGGAC | 0.0376
TAAGGAAA | -0.376
AACGAATT | -0.21
CGTCTCTA | -0.23
GCAAAACC | -0.145
CACAATTC | 0.0566
GACCTGGC | -0.0774
CCACACCC | 0.393
CACTGGTA | 0.313
CAAACGAA | -0.149
ACTACAAC | 0.0769

Sequence | binding signal [E-score]
AAGTTATC | -0.0286
ATGTGGTA | -0.0315
CAAACCTG | -0.0421
CGGCTGAA | -0.0912
ACTTAATG | 0.219
ACACCTAG | 0.445
CGCGTTGC | -0.0153
GATGACGC | -0.0158
CGCATGAA | -0.129
CGTGCGGC | -0.0226
AACTGAAA | -0.0723
ATCTGTTA | -0.13
CTCGCCTA | -0.0855
ATCAATCG | 0.0586
ATACAGCG | -0.105
ACAATCTG | -0.0678
CATTCAAC | -0.0658
AATAATTC | -0.073
ACCACGAG | -0.00694
CCCTACGG | 0.109
AATCCCCA | 0.168
ACAGGCAT | -0.233
GCTGTGCA | -0.0736
AATTTGCG | -0.103
AAGAGTTG | -0.167

Sequence | binding signal [E-score]
CAGGTCCA | -0.125
GGCCCGCC | -0.0113
ACGTACAG | -0.0459
GAGGTTAA | -0.141
TATACGCA | 0.0738
CGAGCTAC | 0.00707
CACCCTGC | 0.293
TGGCCACA | 0.175
CATATTAC | 0.00553
CTAGCGAA | -0.316
AAGGGGAA | -0.184
GTGTCCAA | 0.419
GCACCCCA | 0.257
GGCTCCTA | -0.0392
GTGCATTA | 0.141
CCTCTAAC | -0.195
ATATTGTA | -0.0511
CCGACAAG | -0.18
CGAAATAA | -0.0653
AGCTCTTC | -0.0189
CGTCAGAC | -0.00347
AAACACCG | 0.465
ACGCTTCT | -0.0578
CCTCCTGC | -0.145
GTTGAAAA | -0.0803

Sequence | binding signal [E-score]
CTCAATAA | -0.105
CAACCACC | -0.122
CTAGTAAG | -0.144
ATCCGCAA | -0.153
ATGTAAGC | -0.171
AACCATTC | -0.111
CCGATTCG | -0.0886
GAGTATTA | 0.0828
ACTTAGGG | 0.181
AATCGTCT | -0.18
GGGACATA | -0.192
AACGGGTG | 0.314
AGGAGGGC | -0.0259
AAGGGCCG | -0.0604
CCAAACAC | 0.383
CGAGCCTA | -0.0232
AGCGGAGA | -0.1
CTTGAGCC | -0.125
CATGTAGG | 0.0156
CTATTCAA | -0.14
CAAACGCG | -0.0431
GCTAGAGC | -0.167
CCGGAACC | 0.0928
GCTACACA | 0.147
ACCGCCAC | 0.0484

Sequence | binding signal [E-score]
CAGTGCCG | -0.0642
CTTATAGC | -0.148
AAAGTCTT | -0.328
CGACGGAG | 0.0393
GATTTATA | -0.0755
ACATGCAG | 0.00899
AAACATCA | -0.0223
AAGTGGAC | 0.0215
GGCGGAAA | -0.0584
CGATGACA | 0.231
ATGAATTA | -0.145
AAGACTTA | -0.281
GCAAACGC | -0.108
CAGTAAAA | -0.0731
AGTGTTAA | 0.394
TGTATGAA | 0.181
CACATGTG | -0.0488
AGTTTCGC | -0.216
ACCAACTC | 0.169
ATCCTGCC | 0.011
AGAACGCA | -0.155
ACCCCCTA | 0.337
ACCGCATA | 0.134
TCACGAGA | -0.00998
GATGAGCC | 0.0214

Sequence | binding signal [E-score]
AGGAATCG | -0.0258
GCGCCAGA | -0.125
CATCCTCC | 0.0244
ACCACAGA | 0.0287
AAAACATA | -0.139
ACGGGCGC | -0.00059
GAGATTGA | -0.0191
CCGTATCG | 0.12
ACGGTGAC | 0.0561
CCCTATAA | 0.000415
ATTTGACC | 0.0109
GCGAAACC | 0.0372
GAAAGGAA | -0.209
CCATGAGA | 0.0729
CCACATGG | 0.0704
GCACCCGC | 0.227
AACGTATT | -0.0221
ACCGGCAC | 0.131
ATAGCTTA | -0.139
ACGCCGGA | 0.173
CGCCAAAG | -0.132
ATCGAGGA | -0.131
GTTACACA | 0.267
ATGGACCG | -0.292
AGGATCTA | -0.211

Sequence | binding signal [E-score]
TAGTAAAA | 0.119
AAATTTAC | -0.0569
GGCAACAC | 0.414
ATCCGAGG | 0.165
ATACTTAA | -0.0615
AAAAGTTA | -0.0323
AAAGCTTA | -0.0637
CGTTTCAG | -0.0291
GATAAATA | -0.037
GGACCTAA | -0.0981
ATGGCAGA | -0.0548
ACTGGATG | 0.0298
ATCGAGCC | -0.0707
AAATTCCG | -0.193
GTATAGGA | -0.117
ATACAGTG | 0.13
AAACCGGT | -0.0375
CCGGAGCA | 0.115
CTTCACGA | -0.216
GGCATTGA | -0.171
GCCTAACC | -0.202
AGGAATAC | 0.0317
ATCTTTGC | -0.101
CATCCATC | -0.215
GCAATGAC | 0.118

Sequence | binding signal [E-score]
TGTACACA | 0.353
CGACTTAG | -0.0134
AAGGCAGC | -0.274
ACGAATAC | -0.047
GACGGCGA | -0.214
AAAGAACC | -0.00478
TCTAATAA | -0.0894
ATGATGCC | -0.202
AGCCACAT | -0.209
CCACTACC | -0.00144
ATCAAGGG | -0.0047
GGTATCGA | 0.294
ACAGCGAG | 0.0679
CGTGGTTC | -0.0641
AGTGAGAG | -0.104
GCCAATAC | -0.138
CCGCGTAA | 0.0902
CGTCCTAC | 0.182
GAACTCCC | 0.146
AAACTAGC | -0.0809
GCACTTTA | 0.00768
TCCGCACA | 0.0122
CGGAATGA | -0.0107
GGTTCCGA | 0.129
CGAACGCA | 0.00338

Sequence | binding signal [E-score]
ACGGAGGG | 0.159
ATTCCCTG | -0.167
CTGTGATC | -0.0651
ATAAAGGG | -0.0489
ATGTGGTG | 0.271
CGATGCGC | -0.164
CGTGTTGA | 0.358
GGTCGAGA | -0.0673
CCTTCGCA | 0.0537
GCCCCCTA | -0.0563
CAGGCCTG | -0.318
CTCACGAG | -0.207
GCTTGAGA | -0.175
GCTCACGA | -0.281
CAGATGGC | -0.0219
CATGGTAC | 0.0661
CATCGCCA | -0.0363
TGGGGAAA | -0.153
ACGGTAAT | -0.0131
GACTAAAC | -0.206
ATCGTAGA | -0.004
AAACATTC | -0.207
CCTGCTAC | 0.0495
AAGACGTC | -0.379
CCAGCATA | -0.0101

Sequence | binding signal [E-score]
ATCAAAAA | -0.0931
AGTGGGCC | -0.103
CCCACCAA | 0.135
ATTCTTGG | -0.132
CCTCACGC | 0.01
GCAGTGGC | -0.213
CAATATAA | -0.0998
CTACTTGC | -0.0385
AACCTGCT | 0.102
ACCGTGGG | 0.0607
TTAATAAA | -0.00126
GATCCTCA | -0.0107
TAGCCCGA | -0.2
AATTAATG | 0.00237
TATTGTCA | -0.0614
CAACATAC | 0.0667
CGACCGCC | 0.00712
CCAGACCC | 0.0644
AAAATTTG | -0.245
CAATGATC | -0.0312
CTCACTCC | -0.0604
TATTTACA | 0.311
AATAGACA | 0.187
ACTTAGCG | -0.108
ATCACCGC | -0.0555

Sequence | binding signal [E-score]
CAGATTTC | -0.332
GCGCAGTA | -0.0857
CTCAGGTA | 0.0623
AATCAAAG | -0.107
ACTTTCAT | -0.206
AGTGCAAA | -0.013
CCATTGCA | 0.103
AAAGCTAT | -0.287
AAAATGAG | -0.194
AACATCTG | -0.275
AGTATACG | -0.178
GTATGATA | 0.18
AGTCAGAA | -0.144
CACCCAAG | 0.366
AACTAGGA | 0.027
CGAGCATA | -0.09
ACGCACAA | -0.126
CGTGAGGC | -0.165
CAGAGCGC | -0.141
GGCTTTAC | -0.225
ATTGCTGG | -0.128
ACCGGATC | 0.189
CGCCGCAG | -0.0529
CATAGCGA | -0.1
GACGTCTA | -0.0244

Sequence | binding signal [E-score]
GATGTAGC | -0.081
CCACGGCG | -0.0684
ATTTAGAA | -0.188
CCGCATCC | -0.123
GTGACCTA | -0.123
CCATAAAG | -0.232
CGTGAGGA | -0.152
CGAGTTTC | -0.152
GATTACCC | 0.175
ACGAGGGA | 0.0826
AGGTCTAG | -0.117
AGCAGGAT | -0.0422
CAGACGCG | 0.00919
AACTTAGA | 0.0858
ATATCCCG | -0.0456
GTGTATAA | 0.376
GTTGCGGA | -0.0246
CCCGTCGC | 0.0281
AACATTAG | -0.0907
CTTGTTCA | 0.106
ATTAGACC | -0.0798
CCTCGGGA | 0.136
AAGCAGAT | -0.209
CCTGAGAG | 0.0315
AACCGCTT | -0.184

Sequence | binding signal [E-score]
AAATTGTC | -0.0336
CCGTCTAC | -0.0352
GGTTAACC | -0.0673
GATCCAAC | 0.00762
CTCGGGGA | 0.142
CGAGCCGA | -0.0446
ACTTCGGC | -0.0587
GGGCTGGA | -0.0304
ACGTAGAA | 0.0148
CGCGTTCC | 0.118
ATACGATG | -0.134
GTCATGTA | 0.00121
AGAGGCAT | -0.118
GCGTGCAA | 0.0566
AAAGGGAT | -0.0036
CAGGACCA | -0.155
ATAATCAT | -0.0843
AGTAAGGA | -0.118
CAAGTAAC | -0.139
